Assay results: article PMC4336329 (PLoS ONE, 2015)
About 14,000 (4.5%) of roughly 310,000 compounds showed an effect of 50% or more. The effect is printed as a negative number. Some of the results follow.

target: human ether-à-go-go-related gene (hERG) potassium channel (human, UniProt Q12809); assay: primary screen, population patch clamp on CHO cells stably expressing hERG
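Further: peak tail current of the secondary pulse compared with the same well before compound.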

Chain of human ether-à-go-go-related gene (hERG) potassium channel (Q12809 whole entry, looked up): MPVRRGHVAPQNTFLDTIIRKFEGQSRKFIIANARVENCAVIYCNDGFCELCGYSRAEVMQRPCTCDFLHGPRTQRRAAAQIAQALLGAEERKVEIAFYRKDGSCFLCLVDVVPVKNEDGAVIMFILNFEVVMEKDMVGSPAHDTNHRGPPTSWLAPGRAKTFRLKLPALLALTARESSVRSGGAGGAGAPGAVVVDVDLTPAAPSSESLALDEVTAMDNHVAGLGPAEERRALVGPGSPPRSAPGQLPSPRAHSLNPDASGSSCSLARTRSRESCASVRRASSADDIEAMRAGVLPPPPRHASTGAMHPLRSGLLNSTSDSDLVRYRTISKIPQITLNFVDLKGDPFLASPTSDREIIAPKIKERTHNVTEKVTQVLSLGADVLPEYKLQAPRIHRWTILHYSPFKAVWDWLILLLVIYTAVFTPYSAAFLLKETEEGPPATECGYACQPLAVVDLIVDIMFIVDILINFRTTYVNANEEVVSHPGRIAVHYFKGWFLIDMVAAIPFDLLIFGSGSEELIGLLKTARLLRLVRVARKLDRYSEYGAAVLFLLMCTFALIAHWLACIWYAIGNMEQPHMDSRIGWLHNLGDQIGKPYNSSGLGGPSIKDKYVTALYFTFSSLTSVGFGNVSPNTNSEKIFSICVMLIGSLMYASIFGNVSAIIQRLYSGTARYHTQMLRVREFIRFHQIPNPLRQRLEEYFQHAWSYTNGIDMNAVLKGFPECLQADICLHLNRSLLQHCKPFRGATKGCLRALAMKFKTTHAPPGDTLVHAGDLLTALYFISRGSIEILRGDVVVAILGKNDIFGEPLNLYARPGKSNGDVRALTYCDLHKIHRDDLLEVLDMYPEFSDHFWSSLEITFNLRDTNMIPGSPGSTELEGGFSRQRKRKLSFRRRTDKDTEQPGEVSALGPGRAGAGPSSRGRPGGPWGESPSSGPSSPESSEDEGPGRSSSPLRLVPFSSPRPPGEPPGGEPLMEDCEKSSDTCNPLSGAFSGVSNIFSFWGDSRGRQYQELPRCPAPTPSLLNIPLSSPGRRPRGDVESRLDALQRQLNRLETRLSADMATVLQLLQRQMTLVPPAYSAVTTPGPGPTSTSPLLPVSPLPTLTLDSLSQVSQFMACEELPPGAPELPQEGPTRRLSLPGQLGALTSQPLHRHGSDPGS

SMILES | hERG current change (%, negative = inhibition) at 10uM
O=S(=O)(Nc1ncccn1)c1ccc(F)cc1 | 6.68%
Cc1ccc(NC(=O)CSCC(=O)Nc2ncc3c(n2)CC(c2ccco2)CC3=O)cc1 (centres unmarked) | -30.4%
Cc1ccccc1CN1CCN(CC(=O)NCc2ccccn2)C1=O | 10.3%
C=CCNC(=O)CN(c1ccc(F)cc1)S(=O)(=O)c1ccc(OC)cc1 | -17.8%
Cc1ccc(CNC(=O)c2ccc(N3CCCC3=O)cc2)cc1 | -3.75%
CC(C)CCOP(=O)(c1ccc(N(C)C)cc1)C(O)c1ccc(C(C)C)cc1 (centres unmarked) | 11.7%
O=C(Nc1cccnc1)c1cc(S(=O)(=O)N2CCOCC2)ccc1Br | -35.8%
O=C(N/N=C/c1cc(Cl)cc([N+](=O)[O-])c1O)c1ccc2c(c1)OCO2 | 17.5%
CC(=O)C1C(=O)C=C(c2ccco2)CC1c1ccccc1 (centres unmarked) | -3.77%
O=C1C=C(c2ccc3c(c2)oc2ccccc23)C[C@@H](c2ccc3c(c2)OCO3)C1 | 20.2%
COc1ccc(CNc2nc(C)c([N+](=O)[O-])c(C)c2C#N)cc1 | 12.9%
CC(C(=O)Nc1ccccc1Br)c1ccc([N+](=O)[O-])cc1 (centres unmarked) | -35.5%
Cc1cc(-c2nn(-c3ccccc3)cc2/C=C2\SC(N)=NC2=O)ccc1OC(C)C | -0.837%
O=C(NCCN1C(=O)S/C(=C/c2ccccc2)C1=O)C1CCCN1C(=O)c1cccs1 (centres unmarked) | -26.9%
CCOC(=O)c1cc(NC(=O)Nc2ccccn2)c(C)nc1C | 0.079%
O=C(NCCCC(NC(=O)OCc1ccccc1)C(=O)O)OCc1ccccc1 (centres unmarked) | 12.3%
COc1ccc(N(C(=O)CS(=O)CC(=O)Nc2ccc(F)cc2)C(C(=O)NC2CCCCC2)c2cccs2)cc1 (centres unmarked) | 0.92%
O=C(N/N=C/c1ccc(F)cc1)c1cc(-c2ccc3c(c2)OCO3)n[nH]1 | 4.07%
CC(C)CCNC(=O)c1cc(S(=O)(=O)N2CCCCC2)ccc1N1CCOCC1 | -9.66%
Cc1ccc(-c2nc(C(F)(F)F)cc(=O)[nH]2)cc1 | 12.7%
Cc1ccc(C(=O)Nc2nnc(SCC(=O)N3CCCc4ccccc43)s2)cc1 | 7.27%
O=C(C[n+]1ccc(-c2nnc3n2CCCCC3)cc1)c1ccc(Cl)cc1.[Br-] | 7.92%

SMILES | hERG current change (%, negative = inhibition) at 10uM
CCN(CC)N=O | 9.38%
O=C(O)C(=O)O.O=[N+]([O-])c1ccc(N2CCN(Cc3ccc([N+](=O)[O-])o3)CC2)cc1 | -71.1%
CCOC(=O)c1c(C(F)(F)F)cc(-c2ccc(F)cc2)nc1C | 4.95%
Cc1ccc(S(=O)(=O)N2CCN(C3CC(=O)N(CCc4ccccc4)C3=O)CC2)cc1C (centres unmarked) | -27.7%
Cc1cc(C)c2cc(C(=O)Nc3ccccc3)[nH]c2c1 | 5.27%
COC(=O)NCc1ccc2c(c1)OCO2 | 10.2%
O=C(NCc1ccccc1)[C@]1(C(F)(F)F)C[C@H](CCc2ccccc2)CCCO1 | 3.84%
CCOC(=O)c1ccc(N2CCN(C(=O)c3ccccc3)CC2)c(NC(=O)c2ccco2)c1 | -71.5%
O=S1(=O)c2ccccc2N=NN1Cc1ccc(Cl)cc1 | 16.1%
Cc1ccc2nc(N3CCOCC3)c3nncn3c2c1 | -9.49%
Cc1cc(C)c2c(c1)cc(C)c1nnc(SCC(=O)Nc3ccc(S(=O)(=O)N4CCCCC4)cc3)n12 | 12.6%
CCCCOc1ccc(/C=N/Nc2cc(N3CCOCC3)nc(C)n2)cc1 | -30.5%
CC1CN(CCOc2ccc([N+](=O)[O-])cc2)CC(C)O1.O=C(O)C(=O)O (centres unmarked) | -46.2%
CCCCCCCc1c(O)nc(SCCN2CCOCC2)[nH]c1=O.Cl | -17.2%
Cc1ccccc1NS(=O)(=O)c1ccc2c(c1)NC(=O)CO2 | 5.97%
COC(=O)C1=C(C)NC(=O)NC1c1c(O)ccc2ccccc12 (centres unmarked) | 20%
O=C(Nc1ccc(Br)cc1)c1cccnc1N1CCCCC1 | -18.9%
O=S(=O)(c1ccc(Cl)cc1)N1CCCC(c2nc(-c3ccc(F)cc3)no2)C1 (centres unmarked) | -3.92%
O=C(Cn1cc([N+](=O)[O-])cn1)NCCc1nc2ccccc2[nH]1 | 30.8%
Cc1ccc(C(=O)COC(=O)c2ccccc2N2C(=O)C3C4CCC(C4)C3C2=O)cc1C (centres unmarked) | -19.2%
O=C1OCC/C1=C\c1ccc(O)cc1 | 12.3%
O=C(c1ccco1)N1CCCN(Cc2nc(Cc3ccccc3)no2)CC1 | -25.8%

SMILES | hERG current change (%, negative = inhibition) at 10uM
C=C(C)CNC(=S)N/N=C\c1ccc2c(c1)OCO2 | -38.5%
CC1=C(C(=O)Nc2cccc(C(=O)NCc3ccc(F)cc3)c2)SCCO1 | -7.54%
COc1ccc(-c2ccc(SCC(=O)NCc3ccco3)nn2)cc1OC | -9.59%
O=C1/C(=C/C=C/c2ccccc2)Oc2c1ccc(O)c2CN1CCN(CCO)CC1 | 4.78%
O=C(O)c1ccc(-n2c(O)c(/C=C3\C=Nc4ccccc43)c(=O)[nH]c2=O)cc1 | 12%
COc1ccc(OCCCC(=O)Nc2nncs2)cc1 | 0.955%
COc1ccc(Cn2c(=O)[nH]c3cc(C(=O)N4CCN(c5ccccc5F)CC4)ccc3c2=O)cc1 | 11%
CC(=O)Nc1ccccc1OC(C)C(=O)N1CC(C)CC(C)C1 (centres unmarked) | 26.9%
CCC(CC)C(=O)Nc1cccc(-c2ccc3nncn3n2)c1 | 4.92%
CCOc1cccc(OCCCNCCCOC)c1 | -2.04%
Cn1nc(C(=O)Nc2ccc3c(c2)OCCO3)c2ccccc2c1=O | -12.8%
Cc1ccc(Oc2cc(NN3CCCCC3)c([N+](=O)[O-])cc2[N+](=O)[O-])c([N+](=O)[O-])c1 | -10.3%
CCN(CC(=O)NCc1ccc(Cl)cc1)C(=O)CCc1ccccc1O | -54.1%
CCSC1=N/C(=C\c2ccccc2)C(=O)N1 | -4.35%
Cc1csc(NC(=O)c2ccc(=O)[nH]c2)n1 | 11.1%
O=C(Nc1cccnc1)C(Cc1ccccc1)n1cccc1 (centres unmarked) | 10.6%
O=C1Nc2ccccc2/C1=N\N=C\C1=C(N2CCOCC2)C(=C\c2ccccc2)/CC1 | 3.25%
COc1ccccc1/C=C/C=NC1C(=O)N(c2ccccc2)[N+](C)=C1C (centres unmarked) | 1.61%
Cc1ccc(CNC(=O)N2CCN(c3ccc(C)cc3)CC2)cc1 | 16.9%
CCOc1cccc2sc(N(CCCN(C)C)C(=O)c3ccc(S(=O)(=O)N(C)c4ccccc4)cc3)nc12.Cl | -83.7%
CN(Cc1ccn[nH]1)C(=O)C1CCC(=O)N(Cc2cccc(C(F)(F)F)c2)C1 (centres unmarked) | 8.61%
Cc1ccc(C)c(C(=O)CN2C(=O)NC3(CCC(C)CC3)C2=O)c1 (centres unmarked) | -18.3%

SMILES | hERG current change (%, negative = inhibition) at 10uM
CCc1ccc(NC(=O)N2CCCCCC2)cc1 | 6.55%
Cc1ccc(NC(=S)N/N=C/c2c(Cl)cccc2Cl)c(C)c1 | 10.2%
C[C@H](CCC(=O)NCCS(=O)(=O)[O-])[C@H]1CC[C@H]2[C@@H]3[C@H](O)C[C@@H]4C[C@H](O)CC[C@]4(C)[C@H]3C[C@H](O)[C@]12C.O.[Na+] | 17.9%
Cc1cc(C(=O)OCC(=O)N2CC(C)OC(C)C2)ccc1[N+](=O)[O-] (centres unmarked) | -0.163%
COc1cccc(NC(=O)Cc2nnc(SCC(=O)NC3CCCC3)n2C)c1 | 15.7%
CC(NCc1ccc(S(N)(=O)=O)cc1)C(=O)NCc1ccccc1 (centres unmarked) | 16.5%
CCOc1ccc(NS(=O)(=O)c2ccc(C(=O)N3CCCCC3)cc2)cc1 | -9.46%
CNC(=O)C(C)N1c2cccc3cccc(c23)S1(=O)=O (centres unmarked) | 22.3%
O=C(c1ccccc1)c1ccc2nc(-c3ccc(NC(=O)c4ccccc4Br)cc3)[nH]c2c1 | 17.8%
CCCCNC(=O)Nc1cc(C(=O)OC)ccc1Cl | 3.57%
COc1ccccc1C(=O)Nc1nc(C)cc(C)n1 | 20.5%
CCCC(=O)N1CCN(Cc2ccc3c(c2)OCO3)CC1 | -3.83%
CC(C)(C)c1cc(CCC(=O)N2CCNCC2)c(C(C)(C)C)cc1O | 5.52%
O=C(N/N=C/c1ccco1)c1ccccc1OCc1ccc(Br)cc1 | -8.69%
COc1ccc(S(=O)(=O)NCC2CCCN(Cc3cccnc3)C2)cc1 (centres unmarked) | -47.7%
O=C(CSc1ncn[nH]1)NCc1ccc2c(c1)OCO2 | 7.7%
Cc1ccc(Cc2nnc(SCC(=O)Nc3ccccc3Cl)[nH]c2=O)cc1 | -14.7%
CC(=O)Nc1ccc(N/C(=N\S(=O)(=O)c2ccccc2)c2ccccc2)cc1 | 6.81%
COc1ccc(OC)c(NC(=O)CNC(=O)c2cccs2)c1 | 4.75%
CCCCN(C(=O)CC1CCCC1)c1c(N)n(CC(C)C)c(=O)[nH]c1=O | -30.2%
